Measurements as given in PubChem BioAssay AID588591 (National Center for Advancing Translational Sciences (NCATS), 2011).
Several values for one entry are separate records, joined by “and”; a condition that tells them apart may be missing. Equal entries are not always repeated. Screen size: about 390,000 compounds; about 4,700 (1.2%) were called active. Inconclusive results, whose numbers are uncertain, are shown with a selection of clear calls. Calls follow the shape of the dose curve; as a rule, active = well fitted inhibition curve with a large enough effect; inconclusive = small, poorly fitted or top-dose-only effect, or another doubt; inactive = no such curve, though single readings can be large or run the other way. Where the call is inconclusive, the potency comes from a doubtful curve fit.

Each compound was assayed against DNA polymerase eta (Homo sapiens) (UniProt Q9Y253) (assay: qHTS for Inhibitors of Polymerase Eta). Settings: recombinant Pol eta, fluorescent DNA replication assay; series mostly up to 114 µM; activity change, negative = inhibition: at the top concentration.
In short: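 Pol eta (10 nM) was preincubated with compounds for 15 min at room temperature, after which fluorescent replication substrate (50 nM final) was added to start the reaction. Fluorescence was read kinetically at 0 and 10 min.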
% is scaled to controls: 0 for no effect and ±100 for the full control effect; potency is read from the fitted curve at half-maximal effect; tags tell the direction and shape of the fitted curve.

Chain of UniProt Q9Y253 (Q9Y253 whole entry, looked up): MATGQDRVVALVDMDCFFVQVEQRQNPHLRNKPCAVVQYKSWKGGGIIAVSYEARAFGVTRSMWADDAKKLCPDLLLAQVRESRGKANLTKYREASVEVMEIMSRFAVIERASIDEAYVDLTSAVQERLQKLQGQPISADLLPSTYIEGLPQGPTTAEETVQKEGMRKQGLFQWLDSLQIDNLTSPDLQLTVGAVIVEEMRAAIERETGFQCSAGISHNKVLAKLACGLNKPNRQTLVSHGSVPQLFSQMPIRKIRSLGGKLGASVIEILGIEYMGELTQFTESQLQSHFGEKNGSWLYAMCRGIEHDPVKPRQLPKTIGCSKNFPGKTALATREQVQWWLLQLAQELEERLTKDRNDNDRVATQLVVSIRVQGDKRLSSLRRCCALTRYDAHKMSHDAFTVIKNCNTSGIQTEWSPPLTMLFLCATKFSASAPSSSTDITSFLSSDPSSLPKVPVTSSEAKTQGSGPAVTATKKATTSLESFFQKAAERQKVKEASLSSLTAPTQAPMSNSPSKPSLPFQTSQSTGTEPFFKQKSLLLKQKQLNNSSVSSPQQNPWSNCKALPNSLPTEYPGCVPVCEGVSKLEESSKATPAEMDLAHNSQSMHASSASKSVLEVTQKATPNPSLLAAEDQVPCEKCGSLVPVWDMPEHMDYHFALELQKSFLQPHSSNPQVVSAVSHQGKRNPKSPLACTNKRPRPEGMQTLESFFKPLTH

SMILES | Potency | activity change, negative = inhibition
O=C(/C=C/c1ccc(Br)cc1)c1ccc(NC(=O)c2ccco2)cc1 | inconclusive: 2.82 µM [inhibitor, full curve, poor fit] | 
Cc1ccc(C(=O)Nc2nc(-c3cccnc3)cs2)o1 | inconclusive: 28.2 µM [inhibitor, single point] | 
COc1cccc(NS(=O)(=O)c2ccc3[nH]cc(C(=O)NCCCOC(C)C)c(=O)c3c2)c1 | inconclusive: 31.6 µM [inhibitor, single point] | 
Clc1ccc(OCc2nn3c(-c4ccco4)nnc3s2)c(Cl)c1 | inconclusive: 89.1 µM [inhibitor, single point] | 
O=C(CCc1nnc2ccc(NCc3ccco3)nn12)Nc1cc(F)ccc1F | active: 50.1 µM | 
C=CCN=c1scc(-c2ccco2)n1/N=C/c1ccc(O)c(O)c1O | inconclusive: 12.6 µM [inhibitor, full curve] | 
COc1cc(C)ccc1OCCOc1c(Cl)cc(Cl)cc1Cl | inconclusive: 39.8 µM [inhibitor, partial curve, poor fit] | 
CCCCNc1nc(=S)[nH]c2cc(OC)c(OC)cc12 |  | inactive: -5.32%
Cc1ccccc1C1(O)c2ccccc2-c2ccccc21 | inconclusive: 79.4 µM [inhibitor, partial curve, poor fit] | 
Cc1nc(SCC(=O)NCc2ccc3c(c2)OCO3)nc(C)c1C |  | inactive: 1.7%
Cc1cc(C(=O)N/N=C/c2ccc(O)c([N+](=O)[O-])c2)c(C)n1-c1ccc(F)cc1 | active: 8.91 µM | 
Cn1cc([N+](=O)[O-])c(C(=O)Nc2nc(-c3ccc(Cl)cc3)cs2)n1 | inconclusive: 17.8 µM [inhibitor, full curve, poor fit] | 
CCCCn1c(N)c(N(CCOC)C(=O)COC(=O)c2cc(CC)c(C)s2)c(=O)[nH]c1=O |  | inactive: 6.16%
COc1ccc(S(=O)(=O)N2CCOCC2)cc1NC(=O)c1cccc(-n2cccc2)c1 | active: 2.51 µM | 
CCOC(=O)CC(Nc1nc(N2CCOCC2)nc(N2CCOCC2)n1)c1ccccc1Cl (stereo not given) | inconclusive: 79.4 µM [inhibitor, partial curve, poor fit] | 
Cn1nc([N+](=O)[O-])c(C(C#N)c2nc3ccccc3n2C)c(Cl)c1=O (stereo not given) | inconclusive: 20 µM [inhibitor, partial curve] | 
CC[C@@]12C(=O)N(c3ccc(C)cc3)C(=O)N1[C@H](c1ccc(Br)cc1)[C@@H]1C(=O)N(C(C)(C)C)C(=O)[C@@H]12 |  | inactive: -10.2%
Cc1ccc(-c2ccc(/C=N/N3C(=O)C4C5C=CC(C6CC56)C4C3=O)o2)c([N+](=O)[O-])c1 (stereo not given) | inconclusive: 20 µM [inhibitor, partial curve, poor fit] | 
Cc1csc(NC(=O)CSCC(=O)O)c1-c1nc2ccccc2s1 | active: 89.1 µM | 
O=C(CSc1nnc(CNC(=O)c2ccccc2)o1)NCc1ccco1 |  | inactive: 7.81%
Cc1ccc(-c2c3c([nH]c(=S)c2C#N)CCCC3)o1 | inconclusive: 89.1 µM [inhibitor, single point] | 
Cc1ccc(NC(=O)COc2ccc(/C=N\NC(=O)c3cccnc3)cc2)cc1C | inconclusive: 20 µM [inhibitor, full curve, poor fit] | 

SMILES | Potency | activity change, negative = inhibition
O=C(NCc1ccccc1)c1cc(-c2cccc(Cl)c2)on1 |  | inactive: 1.32%
Cc1cc(C)cc(OCC(=O)NCC(c2ccc(Cl)cc2)N2CCCCC2)c1 (stereo not given) |  | inactive: -27.7%
O=C(C=Cc1ccccc1Cl)c1ccccc1 | inconclusive: 39.8 µM [inhibitor, partial curve] | 
COc1ccc(CN(Cc2cccn2C)S(=O)(=O)c2cccc(C(F)(F)F)c2)cc1 | inconclusive: 0.0447 µM [inhibitor, partial curve, poor fit] | 
CCOc1ccc(/C=C/C(=O)Nc2ccc3[nH]c(=O)[nH]c3c2)cc1 | inconclusive: 11.2 µM [inhibitor, partial curve, poor fit] | 
C=CS(=O)(=O)c1sc(Cl)c(N2CCOCC2)c1[N+](=O)[O-] | inconclusive: 56.2 µM [inhibitor, partial curve, poor fit] | 
O=C(O)c1c(-c2ccccc2)oc2ccc(O)cc12 | inconclusive: 35.5 µM [inhibitor, partial curve, poor fit] | 
O=c1cc(CN2CCN(Cc3ccccc3)CC2)c2ccc(O)c(O)c2o1 | active: 10 µM | 
CC(=O)Oc1ccc2nc(/C=C/c3ccc(C=O)cc3)oc(=O)c2c1 | inconclusive: 56.2 µM [inhibitor, partial curve, poor fit] | 
COc1ccc(-n2c(=O)c3ccccc3n(CC(=O)Nc3cccc(OC)c3)c2=O)cc1 | inconclusive: 89.1 µM [inhibitor, partial curve, poor fit] | 
COc1ccccc1C(=O)Oc1c(Sc2ccccc2)c(C)nn1C(C)(C)C | inconclusive: 44.7 µM [inhibitor, partial curve, poor fit] | 
FCCCOc1ccc(-c2ccnc(-c3ccccc3)n2)cc1 |  | inactive: -25.1%
COc1cc(NS(=O)(=O)c2ccc(NC(=S)NC(=O)/C=C/c3ccco3)cc2)ncn1 | active: 2.24 µM | 
Cc1ccnc(NC(=O)COC(=O)c2ccc(F)cc2F)n1 | active: 44.7 µM | 
COc1ccc(/C=C2\Sc3ccc(C(=O)NCc4cccnc4)cc3N(C)C2=O)cc1OC | inconclusive: 15.8 µM [inhibitor, partial curve, poor fit] | 
Cc1cc(C)cc(OCC(=O)Nc2nc3c(s2)CC(C(C)(C)C)CC3)c1 (stereo not given) |  | inactive: -4.19%
COc1ccccc1C/C(N)=N/OC(=O)c1cccc([N+](=O)[O-])c1 | inconclusive: 79.4 µM [inhibitor, partial curve, poor fit] | 
COCCNC(=S)N=Nc1c(O)[nH]c2c(C)cc(C)cc12 | inconclusive: 39.8 µM [inhibitor, partial curve, poor fit] | 
COc1cccc2c1N1C(=O)c3c(C(=O)O)cccc3C1CC2(C)C (stereo not given) | inconclusive: 31.6 µM [inhibitor, partial curve] | 
COC(=O)c1ccc(CSc2nc(-c3ccco3)cc(C(F)(F)F)n2)o1 | inconclusive: 31.6 µM [inhibitor, partial curve, poor fit] | 
O=[N+]([O-])c1ccc(/C=N/N2CCCCC2)cc1 | inconclusive: 39.8 µM [inhibitor, single point] | 
CC(C)CNS(=O)(=O)c1ccc(CCC(=O)N2CCN(Cc3ccc4c(c3)OCO4)CC2)cc1 | inconclusive: 0.631 µM [inhibitor, full curve, poor fit] | 

SMILES | Potency | activity change, negative = inhibition
COc1ccc(OCC(=O)Nc2nnc(S(=O)(=O)N3CCc4ccccc43)s2)cc1 | inconclusive: 89.1 µM [inhibitor, single point] | 
OC(CNCc1cccs1)c1ccccc1 (stereo not given) | inconclusive: 89.1 µM [inhibitor, partial curve, poor fit] | 
Cc1cc(/C=C2\SC(=S)NC2=O)c(C)n1C | active: 28.2 µM | 
COc1ccc2occ(CC(=O)Nc3ccc(S(=O)(=O)Nc4nccc(C)n4)cc3)c2c1 | active: 79.4 µM | 
C=CCn1c(SCC(=O)NC(=O)NCc2ccco2)nc2sc(C)c(C)c2c1=O | inconclusive: 39.8 µM [inhibitor, single point] | 
Cc1ccc(-c2c(C#N)c(N)n3c(nc4ccccc43)c2C#N)cc1 | inconclusive: 11.2 µM [inhibitor, partial curve] | 
CCOc1ccc(C(=O)c2cn(CC(=O)Nc3ccc(OC)cc3)c3cc4c(cc3c2=O)OCCO4)cc1 | inconclusive: 100 µM [inhibitor, partial curve, poor fit] | 
O=C(N/N=C/c1c(O)n(-c2ccccc2Cl)c(=O)c2ccccc12)c1cccnc1 | inconclusive: 31.6 µM [inhibitor, partial curve] | 
C=CCn1c(SCc2cc(=O)n3ccsc3n2)nc2sc(C)c(C)c2c1=O | inconclusive: 89.1 µM [inhibitor, single point] | 
CCOC(=O)Cc1csc(NC(=O)COc2ccc3c(C)cc(=O)oc3c2)n1 | active: 31.6 µM | 
CN(C)S(=O)(=O)N(CC(=O)NCCSCc1ccccc1)c1ccccc1 | inactive and inconclusive: 89.1 µM [inhibitor, single point] | 
CS(=O)(=O)Nc1cccc(C2=NN(C(=O)c3ccco3)C(c3cccs3)C2)c1 (stereo not given) | inconclusive: 11.2 µM [inhibitor, full curve, poor fit] | 
Cc1cnc(C(=O)OCC(=O)c2ccc[nH]2)cn1 | inconclusive: 44.7 µM [inhibitor, partial curve, poor fit] | 
N#CCCN1CCN(C(=O)c2c(N)no[n+]2[O-])CC1 |  | inactive: -23.7%
COc1c(Cl)cccc1-c1cn2ccc(C)cc2n1 | inconclusive: 7.94 µM [inhibitor, partial curve, poor fit] | 
O=C(CCl)Nc1cccc(S(=O)(=O)N2CCCCCC2)c1 | inconclusive: 39.8 µM [inhibitor, partial curve, poor fit] | 
CCCN(CCC)CC(=O)Nc1cccc2c1OCO2 |  | inactive: -4.19%
Cc1ccc2c(CC(=O)Nc3sccc3C(N)=O)coc2c1 | inconclusive: 39.8 µM [inhibitor, single point] | 
Cc1ccc(CNC(=O)c2ccc3c(c2)nc(C)n3-c2cccc(F)c2)cc1 |  | inactive: -21.5%
O=c1c2c3c(sc2[nH]c(=S)n1Cc1ccco1)CCC3 | active: 20 µM | 
CCN(CC)CCCN1C=C2C(=O)C(C)(OC(=O)C3CCCC3)C(=O)C(c3ccccc3)=C2C=C1CCCC(=O)OC (stereo not given) | inconclusive: 17.8 µM [inhibitor, full curve, poor fit] | 
